Our source for the Vmax values is ChEMBL document CHEMBL4196070, “Development of Piperazinediones as dual inhibitor for treatment of Alzheimer's disease” (Eur J Med Chem, 2018).

Holding throughout (conditions): Electrophorus electricus
Series [1] deals with O=C1C(c2ccccc2)N(S(=O)(=O)c2ccc(Cl)cc2)C(=O)C(c2ccccc2)N1S(=O)(=O)c1ccc(Cl)cc1. Kind of series: Non-competitive inhibition of electric eel AChE assessed as Vmax for substrate at 10 nM preincubated for 30 mins followed acetylthiocholine iodide substrate addition by Lineweaver-Burk plot analysis.
The test system is the same in series [2]. Kind of series: Non-competitive inhibition of electric eel AChE assessed as Vmax for substrate at 20 nM preincubated for 30 mins followed acetylthiocholine iodide substrate addition by Lineweaver-Burk plot analysis.
Series [3] has the same test system. Kind of series: Non-competitive inhibition of electric eel AChE assessed as Vmax for substrate at 40 nM preincubated for 30 mins followed acetylthiocholine iodide substrate addition by Lineweaver-Burk plot analysis.

Turning to “Acetylcholinesterase (Electrophorus electricus) (sequence not shown)”, the results for the Vmax in series [1], in series [2] and in series [3] were 6.79 U/min, 5.24 U/min and 4.67 U/min, respectively.
